A compilation of properties of binary mixtures (doi:10.1007/s10953-017-0695-7)
Some of these densities may be calculated back from excess volumes.

Test: xn = mol fraction of the nth substance listed
Details: 101 kPa

CCCCCO + CCCCCC[n+]1ccn(C)c1.[Cl-]
x1 = 1
Details | mass density [kg/m3]
293.15 K | 814.9
313.15 K | 800.1
323.15 K | 792.5
333.15 K | 784.6

OCCO + CCCCCC[n+]1ccn(C)c1.[Cl-]
x1 = 1
Details | mass density [kg/m3]
293.15 K | 1112.9
303.15 K | 1105.9
313.15 K | 1098.8
323.15 K | 1091.7
333.15 K | 1084.5

CCCCCC[n+]1ccn(C)c1.[Cl-] + CCCCCO
mass density [kg/m3]
Details | 293.15 K | 303.15 K | 313.15 K | 323.15 K | 333.15 K
x1 = 0.0042 | 816.8 | – | – | 794.4 | 786.7
x1 = 0.0088 | – | 811.6 | 804.2 | 796.7 | 789
x1 = 0.0166 | 822.2 | – | 807.6 | 800.1 | 792.5
x2 = 0 | 1037.6 | 1033.8 | 1029.3 | – | 1019
x2 = 0.1514 | 1020.2 | – | 1010.1 | 1004.8 | 999.3
x2 = 0.2971 | 1001.6 | 996.1 | – | 984.8 | 979.2
x2 = 0.5018 | 968.1 | 962.1 | 956.1 | 950.1 | 944.1
x2 = 0.6066 | 943.7 | 937.5 | 931.4 | 925.2 | 919
x2 = 0.7018 | 918.4 | 911.9 | 905.5 | 899 | –
x2 = 0.8012 | 887.4 | 880.8 | – | – | 860.7
x2 = 0.849 | – | 866.3 | 859.5 | 852.7 | 845.7
x2 = 0.8825 | 860.6 | 853.8 | 846.9 | 839.9 | 832.9
x2 = 0.9494 | 836 | 829 | 821.8 | 814.5 | 807.1
x2 = 0.9749 | 825.7 | 818.5 | 811.1 | 803.7 | 796.1

CCCCCC[n+]1ccn(C)c1.[Cl-] + OCCO
mass density [kg/m3]
Details | 293.15 K | 303.15 K | 313.15 K | 323.15 K | 333.15 K
x1 = 0.003 | – | 1105.3 | 1098.3 | 1091.2 | 1084
x1 = 0.0061 | 1111 | 1104 | 1097 | – | –
x1 = 0.0124 | 1109.6 | 1102.6 | 1095.7 | 1088.6 | 1081.5
x1 = 0.0188 | 1107.7 | – | – | 1086.9 | 1079.8
x2 = 0 | 1037.6 | – | 1029.3 | – | 1019
x2 = 0.1526 | 1042.5 | 1038.2 | 1032.6 | 1027.2 | –
x2 = 0.3167 | 1047.5 | 1042 | 1036.3 | 1030.8 | 1025.3
x2 = 0.3999 | 1049.9 | 1044.1 | 1038.5 | 1032.9 | 1027.2
x2 = 0.4977 | – | 1047.5 | 1041.7 | 1035.8 | –
x2 = 0.6002 | – | 1052 | 1045.9 | – | 1033.9
x2 = 0.6987 | 1064.3 | 1058.1 | – | – | –
x2 = 0.8026 | 1074.1 | 1067.6 | 1061.2 | 1054.7 | 1048.2
x2 = 0.8897 | 1086.9 | 1080.3 | – | 1066.9 | 1060.1
x2 = 0.8998 | 1088.8 | 1082.2 | 1075.5 | – | 1061.9
x2 = 0.9152 | 1091.8 | 1085.1 | 1078.4 | 1071.6 | 1064.8
x2 = 0.931 | 1095.1 | 1088.4 | 1081.6 | 1074.8 | 1067.9
x2 = 0.9532 | 1100.3 | 1093.6 | 1086.7 | 1079.8 | –
x2 = 0.9642 | 1103.2 | 1096.3 | – | – | 1075.5
x2 = 0.9761 | 1106.3 | 1099.5 | – | 1085.5 | 1078.4
